Reference: publication PMC7819943, “Rice protein-binding microarrays: a tool to detect cis-acting elements near promoter regions in rice”
This is one part of the list.

Target: T1, OsWOX13 (Oryza sativa, UniProt Q5QMM3 1-267)
T1 sequence: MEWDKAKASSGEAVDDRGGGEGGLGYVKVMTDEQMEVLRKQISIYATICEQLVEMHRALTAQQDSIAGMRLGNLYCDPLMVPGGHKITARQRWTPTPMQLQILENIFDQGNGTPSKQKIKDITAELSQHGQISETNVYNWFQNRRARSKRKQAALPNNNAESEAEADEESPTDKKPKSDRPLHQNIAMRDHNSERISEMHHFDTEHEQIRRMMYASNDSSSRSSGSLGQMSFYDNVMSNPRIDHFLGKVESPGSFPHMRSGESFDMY
Test: protein-binding microarray (RPBM); PBS, 2% BSA, 51.3 ng/ul salmon testes DNA, 50 uM zinc acetate, 200 nM TF, 25 C, 1 h; high values mean tight binding
Conditions: protein: recombinant; tags: N-terminal polyhistidine and DsRed monomer fusion (pET32a); label: CyDye5-dUTP incorporated in the synthesized complementary strand; 3' TTTTT single-stranded linker to array surface; dsDNA, one strand shown
Outline: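 Binding signal is reported as fluorescence intensity per feature (arbitrary units) from an Axon 4000B scanner. Incubation used 200 nM of each Ni–NTA-purified, N-terminally polyhistidine- and DsRed-fused transcription factor from E. coli BL21-CodonPlus on a double-stranded custom Agilent array for 1 h at 25 °C, with 50 µM zinc acetate in the buffer, followed by washing.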

Sequence	binding signal
GTAATCAAATTGTCTCTTTAGATAGCGTGTGTTAGGGGACCGGAGTCACCTAGTGCAG	5110 fluorescence intensity (a.u.)
CGTAATCACAGTTATTTTCTTCGCAACAACAAGAATGATGCGGAGTCACCTAGTGCAG	6870 fluorescence intensity (a.u.)
AGTGATAGAAGACTTATCGGTATGATCTATAGTCAATTGCCGGAGTCACCTAGTGCAG	13800 fluorescence intensity (a.u.)
TGGTTTATTAGCACTAATCATGAAACGGACTAGTAAATGACGGAGTCACCTAGTGCAG	4580 fluorescence intensity (a.u.)
TGGTATTTGATCAAATTTGGATAACTTTACATTCATACACCGGAGTCACCTAGTGCAG	4720 fluorescence intensity (a.u.)
CCTAATTACGCTGTAACACATCAGAACAAGAAATTCATAACGGAGTCACCTAGTGCAG	23300 fluorescence intensity (a.u.)
TTAAATTTATAGAAAATTTACCTCTGTTTTAAATTACAAGCGGAGTCACCTAGTGCAG	19300 fluorescence intensity (a.u.)
TTAGTTGTAATGAAACTAATTTGGTGTTTTAGAATTTAGACGGAGTCACCTAGTGCAG	4720 fluorescence intensity (a.u.)
TAAACAAATCAAAGCAATCAAACACACAAACGTAAGGGGTCGGAGTCACCTAGTGCAG	15600 fluorescence intensity (a.u.)
CTCATCCGAAATTCCTAATTGGCGACTGGTCGCGTGCCCCCGGAGTCACCTAGTGCAG	7730 fluorescence intensity (a.u.)
GTAAGATACTAATTGCGTTCAGACAAAACAGGACAGAAGTCGGAGTCACCTAGTGCAG	6300 fluorescence intensity (a.u.)
ACATGATAGACTAATGAGTAGATTGTTGTCCTAATTAGCTCGGAGTCACCTAGTGCAG	54100 fluorescence intensity (a.u.)
AGAAACTGATCGACTAACTAATGAAAGCACAATATCATCGCGGAGTCACCTAGTGCAG	5520 fluorescence intensity (a.u.)
ATTTAATGACCAACCATAATTGAACATCAAGATGGTGCCACGGAGTCACCTAGTGCAG	18600 fluorescence intensity (a.u.)
TTATTATTATTATTATGATTTATTGAATGAGCCAACAGCTCGGAGTCACCTAGTGCAG	11800 fluorescence intensity (a.u.)
CATGATTGTTGCCAAGACCCTAGGAGCAAGATCACCGAAGCGGAGTCACCTAGTGCAG	33900 fluorescence intensity (a.u.)
GAGATCCACGGGGACTTGATTGATTTCTTTCCTCCATTTCCGGAGTCACCTAGTGCAG	9880 fluorescence intensity (a.u.)
ATGTTAATGAATCTAAACACATACATATGTCTAGATTCATCGGAGTCACCTAGTGCAG	3650 fluorescence intensity (a.u.)
TAGCTAATAATTAATTAATTACATGCTAATGGATTGCTCTCGGAGTCACCTAGTGCAG	39400 fluorescence intensity (a.u.)
AATGTAATGTAACAAATTTGTCTAAAAGGATTGAACTTGGCGGAGTCACCTAGTGCAG	12400 fluorescence intensity (a.u.)
CCTCTTAAACTGGTGGCCCACAATGGTATCTTCCCACACACGGAGTCACCTAGTGCAG	4220 fluorescence intensity (a.u.)

Sequence	binding signal
ATGTTAGATTAAATAAAACTAATTTTATTATAAACAAACTCGGAGTCACCTAGTGCAG	10500 fluorescence intensity (a.u.)
TAGCTTAATTTGATTTCTATTTAAGACCTTGACATTAACGCGGAGTCACCTAGTGCAG	24400 fluorescence intensity (a.u.)
GCATAATCAGTATCCTAATCTACCTGCTCACATGAAAACACGGAGTCACCTAGTGCAG	6550 fluorescence intensity (a.u.)
TTTCCAATCACGTATTCCGGACAAAGGCCTAAACCTGCTCCGGAGTCACCTAGTGCAG	30900 fluorescence intensity (a.u.)
TATGATGATGACATATGGTTGTATGGTCTTTGCTGTGACGCGGAGTCACCTAGTGCAG	12000 fluorescence intensity (a.u.)
TTACAAATTTGTGATTCATTGTTTGGATCTGTGATGTATTCGGAGTCACCTAGTGCAG	3860 fluorescence intensity (a.u.)
TTTAATTTAGGGATAATTTCTTAACTATGCGACAAGACAACGGAGTCACCTAGTGCAG	14000 fluorescence intensity (a.u.)
ATTGATTATGCCATGATTGGATCTTGGCACAGTGCTCTGCCGGAGTCACCTAGTGCAG	60300 fluorescence intensity (a.u.)
ACAAATTTGACGAGCGTGATGTACAAAATCTGCATAAGCACGGAGTCACCTAGTGCAG	42000 fluorescence intensity (a.u.)
AATGATGAGTTGATGACACACTGATGAAGGAGCAAAGCAGCGGAGTCACCTAGTGCAG	17400 fluorescence intensity (a.u.)
ACATACAATTTGGACTTGATTTAGTCTTTTAATTTGTGACCGGAGTCACCTAGTGCAG	7100 fluorescence intensity (a.u.)
AAAGAATTAACGGCGGTGACGGGTTGGGTGCTTACCATGCCGGAGTCACCTAGTGCAG	4730 fluorescence intensity (a.u.)
TTCTAAAATTTAAATTTTGACTTTTAAGTATAAGCGAAAACGGAGTCACCTAGTGCAG	7040 fluorescence intensity (a.u.)
TACTGAGAAATTATTATAATTTCAATTCAATTGAGAGAAGCGGAGTCACCTAGTGCAG	11400 fluorescence intensity (a.u.)
TTGTCGATTCATAATTGACTAATTAAGCAAACGCATATCCCGGAGTCACCTAGTGCAG	17700 fluorescence intensity (a.u.)
CCTTTTAATTTTCTAGTAGTTTAAGGTGACGGATTAGCTGCGGAGTCACCTAGTGCAG	8150 fluorescence intensity (a.u.)
CTATTTAATTAGTTAATTAGGTGTCAATCTTAGGAGAAGTCGGAGTCACCTAGTGCAG	44700 fluorescence intensity (a.u.)
CAAATCATAACGCAATTAGGATTAAAAGATTCGTCTTGCACGGAGTCACCTAGTGCAG	8990 fluorescence intensity (a.u.)
TAGGGATTTAAATTGTAAAACCTATAGTTTTGTGATGACTCGGAGTCACCTAGTGCAG	4740 fluorescence intensity (a.u.)
TAGTAAAATTAATTGCTAGAAAACACATAAAAGCTTAGTACGGAGTCACCTAGTGCAG	23600 fluorescence intensity (a.u.)
TAACCATACACTAATAATTATTTCATTTTGCTGCGGAGGGCGGAGTCACCTAGTGCAG	5110 fluorescence intensity (a.u.)

Sequence	binding signal
TCTCCTATTATTGATTTGTACATGCCCCTTAGCCTTTTCTCGGAGTCACCTAGTGCAG	25800 fluorescence intensity (a.u.)
AGTATAATTAGCATACTATGATATCGATATACACGTTATGCGGAGTCACCTAGTGCAG	31400 fluorescence intensity (a.u.)
CAGAATGATTGTGCTTAATTGTAAAATTGATTTTAGGATTCGGAGTCACCTAGTGCAG	61100 fluorescence intensity (a.u.)
TTCAGTAAATTGACCCCGACGAATTCTCCATGTGTTGTGTCGGAGTCACCTAGTGCAG	27500 fluorescence intensity (a.u.)
GTTTATTTGGGCCTGATTGGCACAGATGGTAGTGCCATGTCGGAGTCACCTAGTGCAG	31700 fluorescence intensity (a.u.)
TAATGCTTTAATTGACTAGAGTTCAGTCATGAGCAGTACTCGGAGTCACCTAGTGCAG	31700 fluorescence intensity (a.u.)
TCTAACTTTTCCATCACATCGTTCCAATTTCAACCAAACTCGGAGTCACCTAGTGCAG	5470 fluorescence intensity (a.u.)
GTCGAAAATTATATCGGAATTAGCAGAGTGTGGCATAGCACGGAGTCACCTAGTGCAG	4260 fluorescence intensity (a.u.)
ACACATAACTTTAATCTCATCGCATCAGGCAGAAACAAGCCGGAGTCACCTAGTGCAG	3560 fluorescence intensity (a.u.)
TTGTTAGATTGAAAATCTTGAATTAGGGGACTAATGTTCTCGGAGTCACCTAGTGCAG	27000 fluorescence intensity (a.u.)
ACATTGATTTCATGATACATTTGGGTTTAATATTGATAGGCGGAGTCACCTAGTGCAG	22100 fluorescence intensity (a.u.)
TTTTATATTAATTTATGTGTGAGACTGACGTGTGGGTCCCCGGAGTCACCTAGTGCAG	15000 fluorescence intensity (a.u.)
ATTCAGCAATTATTTAAATATTAAATTAATCATTAAATGGCGGAGTCACCTAGTGCAG	13600 fluorescence intensity (a.u.)
ACTTTAATTCTTTTCCATCACATCAACCTGTTATACACACCGGAGTCACCTAGTGCAG	4220 fluorescence intensity (a.u.)
GTTTGTTGCAATCACGCCATCTTCACTTCTCCTCAAAGGGCGGAGTCACCTAGTGCAG	4210 fluorescence intensity (a.u.)
TTAATACTTTTAATTAGTGTCCAAACATTCGATGTGGCATCGGAGTCACCTAGTGCAG	4460 fluorescence intensity (a.u.)
TGTGTGATTGCAGAAAATATGATTTAGCTTATGTTATTCTCGGAGTCACCTAGTGCAG	25600 fluorescence intensity (a.u.)
AAATTAAATAACATGTGATTATGGCATACTGTAAGTAGTACGGAGTCACCTAGTGCAG	12000 fluorescence intensity (a.u.)
CTTCTACGTGTGCTACTGATAATTGGGAAAATTGGAACCGCGGAGTCACCTAGTGCAG	3840 fluorescence intensity (a.u.)
GCCAAATTAACACAAAGGGATTATTTTCCACCTAGAATTTCGGAGTCACCTAGTGCAG	10500 fluorescence intensity (a.u.)
GAGCCCAATCAAGTTGTAACACGAGCCCCGTCAAAGTTGTCGGAGTCACCTAGTGCAG	8310 fluorescence intensity (a.u.)

Sequence	binding signal
GATAATGGATTAAGAATCCGGCCTCTACACCACAAGGAGACGGAGTCACCTAGTGCAG	4850 fluorescence intensity (a.u.)
GTAAATTATTTGCTTCTGAATTTCATATAGTATTTAAATACGGAGTCACCTAGTGCAG	3860 fluorescence intensity (a.u.)
ATCTTAATTGAAACAAACACAGCTTTAGTATATGCATGTCCGGAGTCACCTAGTGCAG	58900 fluorescence intensity (a.u.)
TGATGACAGAGAGAAGATTTATGCTTACCTCATTGCAGCTCGGAGTCACCTAGTGCAG	20000 fluorescence intensity (a.u.)
GTTGATTTCATTAGCGAGTTTACCCACAGCACAATAAACTCGGAGTCACCTAGTGCAG	7020 fluorescence intensity (a.u.)
TGATGGTATGATTTTAATTTTGTGCGAATTCGAATGACATCGGAGTCACCTAGTGCAG	4290 fluorescence intensity (a.u.)
TCAAATTAATATTTTACTCCAGACTAGAAATGAGGCAAATCGGAGTCACCTAGTGCAG	6740 fluorescence intensity (a.u.)
CGGCGGCGGAGGAGGAGGAGGAGGAGGGCGCGGGGCGGCGCGGAGTCACCTAGTGCAG	4190 fluorescence intensity (a.u.)
ATAATTATTTTCTTTCATAACCCTTTTATCCTCAGTGGCTCGGAGTCACCTAGTGCAG	6420 fluorescence intensity (a.u.)
TGCCATTGTCAATCTCTCTGCTCTCCTCATGTAACTGATGCGGAGTCACCTAGTGCAG	3180 fluorescence intensity (a.u.)
TGTTAATTTTCAGGATGTTACAGTACTGGATTGACGTCAACGGAGTCACCTAGTGCAG	14200 fluorescence intensity (a.u.)
CTGGCTGTTAATTGTATAGAGACAGTTTTAAAAGCCTAAACGGAGTCACCTAGTGCAG	8390 fluorescence intensity (a.u.)
CTTACTAAATTTGTACTAACAATCATCTCAACCGTTTGATCGGAGTCACCTAGTGCAG	12400 fluorescence intensity (a.u.)
ACAATCAACTGATTTTCTTTCTTTTACAATCAACTGATTTCGGAGTCACCTAGTGCAG	9230 fluorescence intensity (a.u.)
AGAGAGGGGATTGATGATTCTTTCCAGATTCAGAGCCTAGCGGAGTCACCTAGTGCAG	10100 fluorescence intensity (a.u.)
GACATGACAGAGGATTTTGGAGTCACAACACAACGGCGGTCGGAGTCACCTAGTGCAG	4300 fluorescence intensity (a.u.)
TATATAGATTAATAATATATTAAGGACGTAACTGATGCATCGGAGTCACCTAGTGCAG	7830 fluorescence intensity (a.u.)
ATAACAAAATCAACGCCAAAATTGAGTTTTAAACTTTAATCGGAGTCACCTAGTGCAG	3310 fluorescence intensity (a.u.)
CCGAGCAATCAAGCGACAAGATCGAGAAGCCACAAACCCCCGGAGTCACCTAGTGCAG	5480 fluorescence intensity (a.u.)
GTTAATGGCATATAATAGATTTTCTCTATTACTATTCATCCGGAGTCACCTAGTGCAG	27000 fluorescence intensity (a.u.)
GTTAATTTACTATTCTGTTTTATTCTGGTTGTTGATAATACGGAGTCACCTAGTGCAG	17200 fluorescence intensity (a.u.)
